Reference: the supplement of paper PMC3334620
In all, about 33,000 sequences were measured (“E-score (-0.5 to 0.5)”: median about -0.043, highest 2% from about 0.37 on). This is one part of the list.

What follows are sequences tested against T1, Upc2 (UniProt Q12151) (assay: PBM E-score (8-mer binding enrichment) (E-score (-0.5 to 0.5)); higher = stronger / more preferred TF binding; most listed sequences are background and not binding sites). Details: protein concentration: 200 nM; construct: GST-full length.
T1 sequence: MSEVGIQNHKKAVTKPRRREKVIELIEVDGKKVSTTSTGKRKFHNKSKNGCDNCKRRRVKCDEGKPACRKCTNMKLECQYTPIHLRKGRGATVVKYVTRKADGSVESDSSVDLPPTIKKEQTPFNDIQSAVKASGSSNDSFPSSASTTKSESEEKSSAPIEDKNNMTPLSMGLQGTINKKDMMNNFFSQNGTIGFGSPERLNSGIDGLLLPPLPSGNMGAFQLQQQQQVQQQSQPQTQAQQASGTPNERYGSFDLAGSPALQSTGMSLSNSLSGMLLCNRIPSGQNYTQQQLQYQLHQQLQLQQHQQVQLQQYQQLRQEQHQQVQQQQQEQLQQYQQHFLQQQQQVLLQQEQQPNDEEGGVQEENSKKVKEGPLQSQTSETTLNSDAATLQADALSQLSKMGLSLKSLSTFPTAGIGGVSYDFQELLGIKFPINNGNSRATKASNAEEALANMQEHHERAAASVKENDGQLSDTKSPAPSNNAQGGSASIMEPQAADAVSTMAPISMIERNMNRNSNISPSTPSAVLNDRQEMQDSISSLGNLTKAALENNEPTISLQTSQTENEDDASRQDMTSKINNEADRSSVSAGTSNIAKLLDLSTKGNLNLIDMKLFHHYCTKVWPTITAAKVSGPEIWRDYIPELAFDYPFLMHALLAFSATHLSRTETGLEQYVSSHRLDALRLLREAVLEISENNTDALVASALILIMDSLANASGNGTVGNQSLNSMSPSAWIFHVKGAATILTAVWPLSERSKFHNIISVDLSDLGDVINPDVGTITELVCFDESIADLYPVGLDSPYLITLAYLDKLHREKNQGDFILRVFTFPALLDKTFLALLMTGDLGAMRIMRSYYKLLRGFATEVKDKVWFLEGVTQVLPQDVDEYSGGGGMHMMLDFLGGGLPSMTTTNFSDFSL
Summary of the method: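 Each ungapped eight-base word and its reverse complement, pooled, received an E-score from the Universal PBM Analysis Suite. Underlying scans, normalised with masliner, recorded fluorescent anti-GST bound to GST-tagged yeast transcription factors. These were applied at about 100-200 nM to universal all-10-mer Agilent arrays double-stranded by primer extension.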

Sequence	PBM E-score
ACGCCTGA	0.146
CATTTGGC	-0.176
AAGGTAAG	-0.0634
TATGCGCA	0.0561
GTTACAGA	-0.126
ATCTCTCG	0.0826
CCCACGCC	-0.0387
ATACGAAT	0.459
TCGATTCA	-0.0611
CCTCATCA	-0.0689
GTAAAGAA	0.193
CGAATGAC	0.141
CGTAGCTC	0.194
AAGAAGGC	-0.216
CATTTAAG	-0.11
GACGCCTC	0.103
GGGAATTA	-0.0613
CACTCTAA	-0.215
ACCGTTAC	0.221
GCAGTTAC	-0.0121
CATTATAG	-0.0846
GGGGTCTA	-0.168
GTATCCCA	-0.079
CACTACTA	-0.191

Sequence	PBM E-score
ATTCGCAA	-0.00304
AAAGGCAA	-0.142
CACCCATG	-0.223
ACAGAAAA	0.0844
AGATCATA	0.0437
CCGCAAGA	0.0113
AATATAGA	0.0283
AAACTCCT	-0.187
GCATAGCA	0.0496
AGGTGCAC	-0.102
AAGTTTAT	-0.0152
GACCTTGC	0.0484
AAAAGTGC	-0.0156
GAATCATA	-0.128
CATCACTA	-0.183
GTCATAAC	-0.108
CCACCGGG	-0.167
CATTTAAA	0.0632
CCGGTTTA	0.168
AGGCCAGA	-0.282
ATTACTTA	0.0288
CTTATTTC	0.0806
CGTTACCA	0.171
CCGTACCA	0.368

Sequence	PBM E-score
AACCCGCG	0.057
AACATGTG	-0.0031
CGGTGACA	-0.162
CATAGCAC	-0.0714
CCCCGACG	-0.0593
CTAAACAG	-0.0266
CTAGACGC	-0.0348
CTAAAGAG	-0.0322
CACTGTAC	0.111
CATAATGC	-0.128
ACGTTGCT	0.136
GGCAGGAC	-0.157
GCCTCCCA	-0.118
GAACGACA	0.437
CACTACGA	0.296
GAAGCTGA	-0.151
GGATTAGA	-0.181
AGATAACG	0.088
GATTTACA	0.015
AGTTTTTG	-0.111
GCACCGAC	-0.0498
GGAAGTAA	-0.0533
CGCTGGAA	-0.186
GGTAATTA	0.115

Sequence	PBM E-score
GACATGAC	-0.101
CCGAATTC	0.0798
AAGCTCTA	0.0768
ATCACGGG	-0.175
CGACGGCA	0.193
GAAATGCA	-0.0271
GCGCTGCC	-0.205
CAATCGAG	0.0643
ACCATGTC	0.0657
CGGTTTTA	0.108
CATTCCCC	-0.191
GCGTGACA	-0.121
CTGCTATA	-0.025
CCTAAGCA	-0.124
CTAAGACA	0.0291
GACAAATC	0.00339
GAAAAAAA	0.116
CCGGTTTC	-0.143
AGGCCCTG	-0.142
TCTGCTCA	-0.179
CAAAAGGG	-0.209
GAAAAGAC	-0.0791
